In ChEMBL document CHEMBL1201862, “PubChem BioAssay data set” (2004):
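Five compound concentrations were applied to cells in 96-well plates for 48 hours; endpoints were derived by simple linear interpolation of the resulting dose-response curve. GI50 is the concentration that inhibits growth by half.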 The source made the active and inactive calls. Cut-off read from the data, not from the text of the source: active = GI50 up to about 1.1 µM and inactive = higher.

The compounds below were run on NCI-H322M (assay: NCI tumour cell line growth inhibition, 48 h).

| SMILES | GI50 |
| --- | --- |
| Nc1nc(Cl)cc(NCCCCO)n1 | inactive: > 100 µM |
| O=C1C(c2c(O)[nH]c3ccc(S(=O)(=O)O)cc23)=Nc2ccccc21 | inactive: > 100 µM |
| CCC(C)(C)c1ccc(Oc2cccc(C(=O)O)c2)cc1 | inactive: 82.4 µM |
| CC1=C(Nc2c(C)cc(O)cc2O)C(=O)C=c2oc3c(c21)C(C)=C(Nc1c(C)cc(O)cc1O)C(=O)C=3 | inactive: 31.2 µM |
| CC1=C(C#N)C(C#N)(C#N)C(NN(C)C)C1 (centres undefined) | inactive: 37.2 µM |
| CCOC(=O)C(C(=O)OCC)=C1SC(=N\c2ccccc2)/C(=N/c2ccccc2)N1c1ccccc1 | inactive: 65.9 µM |
| CC(C)(CN1CCCCC1)C(=O)CC(SCCS(=O)(=O)O)c1ccc(Cl)c(Cl)c1 (centres undefined) | inactive: 10 µM |
| CC1(C)OC[C@H](C(=N)OCc2ccccc2)O1 | inactive: > 100 µM |
| O=C(c1ccco1)N(C(=S)N1CCN(c2ccccn2)CC1)C1CCCCC1 | inactive: > 100 µM |
| O=C1C2CC=CCC2C(=O)C12CCc1ccccc12 (centres undefined) | inactive: > 100 µM |
| O=C1Nc2ccccc2/C1=N/Nc1nc(-c2ccc(Br)cc2)cs1 | inactive: 34.5 µM |
| CCn1c(SCC(=O)NNC(=S)Nc2ccc(C)cc2)nc2ccccc2c1=O | inactive: > 100 µM |
| CC(C)[Si](OC/C(=C/COC(C)(C)C)[C@H]1CC=C(C(=O)c2ccccc2N2CN(C)C(=O)N(C)C2)C1)(C(C)C)C(C)C | inactive: 17.2 µM |
| N#CC(NNC(=O)c1c(Cl)c(Cl)c(Cl)c(Cl)c1-c1nc2cc(C(=O)c3ccccc3)ccc2[nH]1)c1ccccc1 (centres undefined) | inactive: 26.2 µM |
| COc1ccc(/N=C2\C(=N/c3ccc(OC)cc3)N(S(=O)(=O)c3ccccc3)C(=S)N2c2ccc(OC)cc2)cc1 | inactive: > 100 µM |
| c1cnc2c(c1)-n1cccc1C1(CCSC1)NN2 (centres undefined) | inactive: > 100 µM |
| COc1ccc(CC2NCCc3cc(OC)c(OC)cc32)cc1 (centres undefined) | inactive: > 100 µM |
| CC(C)Oc1cccc(N2C(Nc3ccccc3)=Nc3ccncc3S2(=O)=O)c1 | inactive: 43.3 µM |
| CC(=O)OC(OC(C)=O)c1ncccc1C(=O)OC(C)C | inactive: > 100 µM |
| Cc1ccc2c(=O)c(-c3nnc(NC4CCCCC4)s3)c[nH]c2n1 | inactive: > 100 µM |
| N/C(=N\c1ccc(Cl)c(Cl)c1)c1ccccc1N | inactive: 29.2 µM |
| O=[N+]([O-])/C=C(\CS(=O)(=O)c1ccccc1)c1ccc2c(c1)OCO2 | inactive: 86.1 µM |

| SMILES | GI50 |
| --- | --- |
| NS(=O)(=O)c1cc2c(cc1Cl)NC(C(=O)c1cc(=O)c3ccc(O)cc3o1)=NS2(=O)=O | inactive: > 100 µM |
| O=C1c2cccc3cc([N+](=O)[O-])cc(c23)C(=O)N1CCCN1CCN(CCCNc2ccc3ncn4c5ccccc5c(=O)c2c34)CC1 | active: < 0.005 µM |
| C=C[C@@]1(C)CC2(C=C(CO)C(O)O2)Oc2c1c(=O)oc1cccc(C)c21 (some centres undefined) | inactive: 22.9 µM |
| CC1CC/C(=C\c2ccc(F)cc2)C2=C1C(c1ccc(F)cc1)n1c(s/c(=C\c3ccc(Cl)cc3)c1=O)=N2 (centres undefined) | inactive: > 100 µM |
| Cc1ccc(Nc2cn(COCc3ccccc3)c(=O)[nH]c2=O)cc1 | inactive: > 100 µM |
| CCOC(=O)C1=[N+]([O-])OC2=C(O)CCCC21 (centres undefined) | inactive: > 100 µM |
| COc1ccc(/C(C)=C2\CCCN(Cc3ccccc3)C2)cc1 | inactive: 32 µM |
| O=c1oc2ccccc2cc1-c1cn2c(n1)sc1ccccc12 | inactive: 2.54 µM |
| COc1ccc(/C=C2\N=C(c3ccccc3)N(C3Nc4cc5c(cc4S3)NC(N3C(=O)/C(=C/c4ccc(OC)cc4)N=C3c3ccccc3)S5)C2=O)cc1 (centres undefined) | inactive: 93.3 µM |
| CC(=O)SC(C[N+](=O)[O-])c1ccc2c(c1)OCO2 (centres undefined) | inactive: 16.5 µM |
| COc1cc(/C=C/C=C2\CC(C)C/C(=C\C=C\c3ccc(O)c(OC)c3)C2=O)ccc1O (centres undefined) | inactive: 14.4 µM |
| O=C1C=C(Nc2ccccc2C(=O)CC(=O)C(=O)Nc2cccc([N+](=O)[O-])c2)c2ccccc2C1=O | inactive: 58.7 µM |
| N=C(N)NS(=O)(=O)c1ccc(NC(=O)c2ccc3nc4ccccc4c(Nc4ccc(S(=O)(=O)N=C(N)N)cc4)c3c2)cc1 | inactive: > 100 µM |
| O=[N+]([O-])c1ccc2c(c1)Sc1ccccc1N2 | inactive: > 100 µM |
| O=C1CC(c2ccccc2)[S+]([O-])c2ccccc2N1 (centres undefined) | inactive: > 100 µM |
| C(#C[C@@]12CCC[C@@H]1N(Cc1ccccc1)CO2)c1ccc2c(c1)OCO2 | inactive: > 100 µM |
| CC(=O)N1N=C(c2c(O)ccc3ccccc23)CC1c1ccc(Cl)cc1 (centres undefined) | inactive: 28.4 µM |
| OC1(c2cccs2)c2cccc(Cl)c2C(O)(c2cccs2)c2c(Cl)cccc21 (centres undefined) | inactive: > 100 µM |
| CN(C)CCNC(=O)c1cccc(N(C)C(=O)c2ccccc2)c1[N+](=O)[O-] | inactive: > 100 µM |
| C=CCn1c(=O)ccn(/C(=C/C(=O)OCC)C(=O)OCC)c1=O | inactive: 40.4 µM |
| CCN(CC)c1nc(NC2CCCCC2)c2nc(N(CC)CC)nc(NC3CCCCC3)c2n1 | inactive: > 100 µM |
| COc1cc(-c2oc3ccccc3c(=O)c2O)cc(OC)c1OC | inactive: > 100 µM |
